Experimental data taken from the supplement of paper PMC4604168 (melanoma cell lines).
The other results are listed elsewhere or left out. Repeats are few or missing, and single values can be far off.

Test system: COLO800
Assay: cell count relative to DMSO control; melanoma cells; higher = more viable cells
Settings: library dose: standard library concentration; 72 h
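Note: cells treated in 1,536-well plates, then fixed and DAPI-stained, with nuclei counted from automated high-throughput microscope images.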

SMILES | cell count
Cn1cc(/C=C2\C(=O)Nc3cccnc32)c2ccccc21 + CCCCCCCCCCCC1=C(O)C(=O)C=C(O)C1=O [Embelin] (first compound 2 µM, partner dose 6 µM) | 46%
COc1ccc2c(c1)CCC1C2CCC2(C)C(NCCCCCCN3C(=O)C=CC3=O)CCC12 (stereo unspecified) + CCCCCCCCCCCC1=C(O)C(=O)C=C(O)C1=O [Embelin] (first compound 2 µM, partner dose 6 µM) | 32.4%
COc1cc2ncnc(Nc3ccc(Oc4ccccc4)cc3)c2cc1OC + Cn1cc(/C=C2\C(=O)Nc3cccnc32)c2ccccc21 [GW441756] (first compound 10 µM, partner dose 2 µM) | 122%
Cc1cc([N+](=O)[O-])ccc1NS(=O)(=O)c1cc(Cl)ccc1Cl + COc1cc(N2CCC(N3CCN(C)CC3)CC2)ccc1Nc1ncc(Cl)c(Nc2ccccc2S(=O)(=O)C(C)C)n1 [NVP-TAE684] (first compound 5 µM, partner dose 0.4 µM) | 46.5%
N#Cc1c(O)c2c(-c3ccc(-c4ccccc4O)cc3)csc2[nH]c1=O + COc1cc(N2CCC(N3CCN(C)CC3)CC2)ccc1Nc1ncc(Cl)c(Nc2ccccc2S(=O)(=O)C(C)C)n1 [NVP-TAE684] (first compound 10 µM, partner dose 0.4 µM) | 55.5%
O=S(=O)(c1ccccc1)N(CC(F)(F)F)c1ccc(C(O)(C(F)(F)F)C(F)(F)F)cc1 + Cc1cc([N+](=O)[O-])ccc1NS(=O)(=O)c1cc(Cl)ccc1Cl [FH535] (first compound 7 µM, partner dose 5 µM) | 57.5%
